Results on 172 sequences are retold here after publication PMC10668032.

Some of the results follow. At the low end of the ranking the order means little.

The target in the experiment is SIX1-Q177R homeodomain (UniProt Q15475). Put plainly: universal protein binding microarray. As to conditions: Universal all-10-mer PBM (8x60K, AMADID 030236), 300 nM GST-tagged protein, Alexa Fluor 488 anti-GST; buffer, salt, pH and temperature not stated; high values mean tight binding; most listed sequences are background and not binding sites; double strand, one strand shown.
As to GTCTCAGA, the binding signal was -0.029 E-score. Take AACGGCCC: the binding signal was -0.13 E-score. The same measure for TCTAGTAA: -0.314 E-score; for AGTCTTAA: 0.0291 E-score. As to ACAAACAT, the binding signal was -0.184 E-score. The same measure for AGGCGGAT: -4.5e-05 E-score. The same measure for CCGGCTAG: 0.0115 E-score. Turning to AGTCCACT, the binding signal is -0.00188 E-score. With TACCGTAA, the binding signal was -0.104 E-score. CACATCTG: the binding signal amounted to 0.133 E-score.

Take AAGCAATT: the binding signal is -0.224 E-score. The same measure for GTTTCGAA: -0.0215 E-score; for GTACTAAA: 0.0238 E-score; for GGATTTCA: -0.0431 E-score.

On to AGATGGAG, for which the binding signal was determined as 0.181 E-score. With AGCAAAAT, the binding signal is -0.0789 E-score.

Take GGATTCGA: the binding signal was determined as 0.118 E-score. To ATACGCGC belongs -0.0233 E-score; to CCATGTCC, -0.188 E-score; to ATTTCCCG, -0.146 E-score.

Regarding ACCGAGGC, the binding signal is -0.00278 E-score. As for CGAAAGCG, the binding signal is 0.0656 E-score. The same measure for CGCTTTTA: -0.164 E-score; for ACCCGACC: 0.223 E-score; for ATCCGAAC: 0.0817 E-score. Take CAACCATC: the binding signal was -0.104 E-score. To AAAACTTA belongs -0.148 E-score; to CGACAAAG, -0.093 E-score; to CATGCAAC, 0.0746 E-score. In the case of CTATATGC, the binding signal is -0.0785 E-score.

As to ATACACCA, the binding signal worked out at 0.47 E-score. As to AGACATCC, the binding signal was -0.25 E-score. The same measure for ACAGCCTC: -0.181 E-score. Consider GTATGCAA, for which the binding signal worked out at 0.0924 E-score. ACACCAAC: the binding signal was 0.462 E-score. On to CACGTGGC, for which the binding signal was -0.0158 E-score. As for CGGCGATC, the binding signal was -0.00497 E-score. The same measure for AACAGACT: -0.183 E-score; for AGTTCCCA: -0.0998 E-score; for AACTTCGT: -0.216 E-score. For ATTATATC, the binding signal is -0.15 E-score.

For the sequence AGGTAGAT, the binding signal is -0.085 E-score.

On to CAGCCGAC, for which the binding signal amounted to 0.196 E-score.

Consider ACACGGAT, for which the binding signal worked out at 0.392 E-score. The same measure for ACGGCCTG: -0.0622 E-score; for GTATCTGA: 0.236 E-score. Regarding GCTATTCA, the binding signal was determined as 0.0754 E-score.

With ATAAAGGC, the binding signal is -0.207 E-score. To CCCGTTGC belongs -0.0962 E-score. Take GCATTCCC: the binding signal was -0.0753 E-score.

For the sequence TAACGCAA, the binding signal is -0.0787 E-score. To CGAGGGCA belongs 0.0243 E-score; to ACTCCTTA, 0.00654 E-score; to ACAGGACC, -0.255 E-score.

With CCGTGTGC, the binding signal was 0.215 E-score.

On to CCGAACTC, for which the binding signal was -0.149 E-score. To AATATCAT belongs -0.0565 E-score; to GAGTCGTA, 0.091 E-score; to TATGTTAA, -0.142 E-score. As to CAGTGTTC, the binding signal stood at 0.355 E-score.

Take GCCTACTA: the binding signal was -0.0109 E-score. To CCCTTCGG belongs 0.0473 E-score; to GATGGCGC, -0.0114 E-score. For the sequence ATCGCCAC, the binding signal was determined as 0.147 E-score. Regarding CAGTAACG, the binding signal is -0.203 E-score. On to CCGAACAA, for which the binding signal is -0.0185 E-score. As for AGGCGACT, the binding signal is -0.172 E-score. For AGTCCAAT, the binding signal is -0.111 E-score. For AGATCCGC, the binding signal was found to be 0.0216 E-score.

Turning to GTGAGTAA, the binding signal is -0.0154 E-score. The same measure for GATCTCGC: -0.0221 E-score.

With CCGGGTTC, the binding signal was found to be 0.22 E-score.

On to ACTGACAC, for which the binding signal was 0.478 E-score. Regarding CCTAGGTC, the binding signal was -0.0423 E-score. ATCTACTG: the binding signal is -0.0572 E-score. To ACCTCAGG belongs 0.00128 E-score. On to ATCGACCA, for which the binding signal was -0.229 E-score. As to ATATCTGA, the binding signal was -0.122 E-score. The same measure for ACCCAGGT: 0.182 E-score; for CGATTCAG: -0.183 E-score; for ATACGACG: -0.0903 E-score. To AGGAATTA belongs -0.206 E-score. The same measure for ACCGATGG: -0.071 E-score. In the case of TAGTACTA, the binding signal was -0.0412 E-score. In the case of AATCAAAA, the binding signal was -0.0451 E-score. The same measure for AAGCTCGG: -0.2 E-score; for GTGCTAGA: -0.0111 E-score; for GATGTTCC: -0.132 E-score. The same measure for CGCACTTC: -0.102 E-score. To GGTACAAA belongs -0.0234 E-score; to CTCTGATC, -0.0208 E-score; to ATTATAAA, -0.221 E-score. For GAGCCTCC, the binding signal is -0.217 E-score. The same measure for ACTGCTAC: 0.11 E-score; for CCTCGAGA: -0.0793 E-score; for CAGCATCG: -0.2 E-score. The same measure for ATTAACCG: 0.0049 E-score; for CACTCCCG: 0.182 E-score. For CAAGTTCG, the binding signal is 0.0407 E-score. The same measure for CACGTAGA: 0.0737 E-score; for AGTGGGCG: -0.0215 E-score. To GGGTCTAA belongs 0.0979 E-score; to TTTCAAAA, -0.272 E-score; to AATTTGAC, -0.0374 E-score. To ACAGTCTG belongs -0.225 E-score; to GCCATACC, -0.0688 E-score; to TGAATCAA, -0.0841 E-score. TACACCCA: the binding signal turned out to be 0.471 E-score.

Take CAATATAG: the binding signal was -0.0995 E-score. To GCTACTCA belongs -0.0846 E-score; to ATCGTGAG, -0.0302 E-score; to ATATATCC, 0.021 E-score.

Turning to ATGAAAAG, the binding signal is -0.145 E-score. Turning to AAAATGTT, the binding signal was -0.166 E-score. To CGATGCTA belongs -0.183 E-score; to ACCATCCT, -0.0891 E-score; to CGCCGCTA, -0.0424 E-score. To CGAGCGCA belongs -0.128 E-score. The same measure for ATATGCCA: 0.00031 E-score; for AGACACTC: 0.363 E-score. For the sequence AGCCGACC, the binding signal is 0.04 E-score. The same measure for ATAGAGCG: -0.247 E-score; for AGGATCCC: 0.155 E-score; for ATTATTAA: -0.153 E-score.

As for CATCAAAC, the binding signal was -0.086 E-score. The same measure for AGCACGAA: 0.0605 E-score.

Turning to CCTCGATA, the binding signal is -0.0294 E-score. The same measure for TCTACACA: 0.194 E-score.

On to AGCGACAC, for which the binding signal is 0.465 E-score.

With CAATCGCA, the binding signal is -0.039 E-score. To TCCGAAGA belongs -0.0175 E-score. To GCGGCGAA belongs -0.0975 E-score.

As to CCACCCCA, the binding signal was 0.267 E-score. The same measure for GCGATTCC: -0.121 E-score. To CAGACGTA belongs -0.133 E-score; to GGCAAACC, -0.0457 E-score; to AGTGGCTC, -0.244 E-score. To AAAGCTGT belongs -0.153 E-score; to GCCAGTGA, -0.217 E-score.

With GTCGATCA, the binding signal is -0.0716 E-score. Take AGTGACAA: the binding signal is -0.0873 E-score. Turning to GCTCGCAC, the binding signal was -0.00907 E-score. For the sequence CCTTTTCC, the binding signal was -0.137 E-score. To ACACTCTG belongs 0.404 E-score. To ACTGCCCT belongs -0.186 E-score. On to CAAGGACG, for which the binding signal was -0.1 E-score. Regarding CCTGCCAG, the binding signal was found to be 0.00762 E-score. The same measure for CAAGGTAG: 0.0313 E-score; for CAAGTCCA: -0.211 E-score; for CGCCCGCG: 0.0542 E-score. Consider AGTCCGAC, for which the binding signal is -0.112 E-score.

Take ACGGCGCG: the binding signal is -0.0307 E-score. With CCATTGTA, the binding signal is -0.216 E-score. Turning to CTAACGTC, the binding signal was -0.117 E-score. The same measure for ACTAATAT: 0.0662 E-score; for GCGGAAAC: -0.162 E-score.

Consider GTCGAAAA, for which the binding signal was -0.0496 E-score. Regarding CAATTTAC, the binding signal worked out at 0.0127 E-score. TACATGAA: the binding signal was -0.0417 E-score. As for CCACCTGC, the binding signal turned out to be 0.05 E-score. For the sequence AGTGGCCC, the binding signal was -0.271 E-score. The same measure for ATGGTTTC: -0.0381 E-score. The same measure for CGTTTTCA: -0.0704 E-score; for ATACTCCC: 0.162 E-score. ACGATACT: the binding signal was 0.143 E-score.

In the case of TCCTAGAA, the binding signal came to 0.0238 E-score. To AAGCTGAG belongs -0.114 E-score; to TAGGGTAA, 0.0306 E-score; to ACGTTGAT, -0.0834 E-score. As for AACGATGA, the binding signal was -0.0738 E-score.

For the sequence AACACAGG, the binding signal came to 0.0717 E-score. TAAAGCTA: the binding signal was -0.221 E-score.
